Measured values taken from publication PMC4336329 (PLoS ONE, 2015).
About 14,000 (4.5%) of roughly 310,000 compounds showed an effect of 50% or more. Effects have a minus sign here. This is one part of the list.

target: human ether-à-go-go-related gene (hERG) potassium channel (human, UniProt Q12809); experiment: primary screen, population patch clamp on CHO cells stably expressing hERG
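Further: peak tail current of the secondary pulse compared with the same well before compound.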

Chain of human ether-à-go-go-related gene (hERG) potassium channel (Q12809 whole entry, looked up): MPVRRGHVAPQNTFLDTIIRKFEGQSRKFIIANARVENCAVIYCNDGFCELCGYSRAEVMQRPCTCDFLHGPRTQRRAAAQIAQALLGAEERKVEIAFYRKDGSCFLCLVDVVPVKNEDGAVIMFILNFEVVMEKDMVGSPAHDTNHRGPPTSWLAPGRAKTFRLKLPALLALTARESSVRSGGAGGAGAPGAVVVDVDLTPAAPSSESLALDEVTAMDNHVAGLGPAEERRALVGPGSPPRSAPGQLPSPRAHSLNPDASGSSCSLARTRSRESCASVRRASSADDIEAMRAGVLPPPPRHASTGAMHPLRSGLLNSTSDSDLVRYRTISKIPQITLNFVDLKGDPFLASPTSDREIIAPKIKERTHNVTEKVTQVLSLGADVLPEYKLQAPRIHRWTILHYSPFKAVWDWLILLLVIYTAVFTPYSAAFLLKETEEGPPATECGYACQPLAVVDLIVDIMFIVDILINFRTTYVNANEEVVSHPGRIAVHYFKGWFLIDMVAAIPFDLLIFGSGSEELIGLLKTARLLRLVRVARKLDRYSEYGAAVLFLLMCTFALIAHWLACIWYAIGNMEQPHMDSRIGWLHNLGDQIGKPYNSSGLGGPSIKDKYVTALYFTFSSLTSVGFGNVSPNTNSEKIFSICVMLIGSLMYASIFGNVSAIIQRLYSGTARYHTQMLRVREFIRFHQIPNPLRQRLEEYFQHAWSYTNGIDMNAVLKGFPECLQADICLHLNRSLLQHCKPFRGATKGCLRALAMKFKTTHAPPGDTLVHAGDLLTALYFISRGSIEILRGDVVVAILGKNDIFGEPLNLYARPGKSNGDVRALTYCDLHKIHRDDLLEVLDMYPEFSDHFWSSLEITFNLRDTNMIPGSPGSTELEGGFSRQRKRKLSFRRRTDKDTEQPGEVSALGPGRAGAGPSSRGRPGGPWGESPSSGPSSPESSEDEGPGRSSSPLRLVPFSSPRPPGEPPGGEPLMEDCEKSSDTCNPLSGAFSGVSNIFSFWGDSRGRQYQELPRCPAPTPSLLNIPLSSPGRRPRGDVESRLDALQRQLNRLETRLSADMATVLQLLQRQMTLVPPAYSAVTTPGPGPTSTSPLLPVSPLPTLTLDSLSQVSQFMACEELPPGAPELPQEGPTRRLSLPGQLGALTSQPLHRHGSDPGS

Row | SMILES | hERG current change (%, negative = inhibition) at 10uM
1 | COc1ccc(-n2ncc3c(SCC(=O)NNC(C)=O)ncnc32)cc1 | 18.5%
2 | COc1cccc(NC(=O)COc2ccc3c(c2)CCC3)c1 | 2.74%
3 | O=C(O)c1cccc2c1C(=O)c1cccc3snc-2c13 | -0.646%
4 | COc1cccc(NC(=O)CN(C)C(=O)c2c(C)noc2C)c1 | -18.2%
5 | N/C(=N\OC(=O)c1cccc(Cl)c1)c1ccccn1 | 19.1%
6 | CCOc1ccc(C(=O)NC(=S)Nc2ccc(N3CCCCC3)cc2)cc1[N+](=O)[O-] | 8.37%
7 | CC(=O)c1ccc(NC(=S)NC(=O)/C=C/c2ccc(F)cc2)cc1 | 20%
8 | COc1ccc(C(=O)N/N=C/c2c(CO)cnc(C)c2O)cc1 | -1.9%
9 | O=C(Nc1ccc(F)c(Cl)c1)Nc1cnccn1 | 11.9%
10 | S=c1[nH]nc(COc2ccc3c(c2)OCO3)n1-c1ccccc1 | 29.4%
11 | Cc1ccc(CCN2CC(C(=O)NCCN3CCCCCC3)CC2=O)cc1 (stereo not drawn) | -3.28%
12 | CC(C)Oc1cccc(C(=O)NC(=S)Nc2ccccc2)c1 | -7.26%
13 | CCC(=O)c1cc2c(C)cc(=O)oc2c(C)c1O | -7.17%
14 | COc1ccc(C(=O)NC2CCN(CC(=O)Nc3c(C)cccc3C)CC2)cc1OC | 18.7%
15 | C=CC(=O)N(CCC)C(c1ccccc1)c1ccccc1OC (stereo not drawn) | -5.5%
16 | O=C(Nc1nc2nc(-c3ccccc3)cc(=O)n2[nH]1)c1ccccc1 | 13.7%
17 | Cc1cc(C)c(C)c(OCCn2ccnc2)c1 | 10.1%
18 | O=C(COC(=O)C1CCN(S(=O)(=O)c2cccs2)CC1)c1ccccc1 | 20.6%
19 | Clc1ccc(OCCCCCN2CCCC2)c(Br)c1 | -62.3%

Row | SMILES | hERG current change (%, negative = inhibition) at 10uM
20 | Cn1cc(-c2cc(C(=O)O)on2)cn1 | 8.19%
21 | CCc1nn(CCCC(=O)NC(C)c2ccccc2)c(=O)c2cc3occc3n12 (stereo not drawn) | -16.4%
22 | COc1cc(/C=N/N(C)c2ccccc2)cc(Cl)c1O | 16.6%
23 | O=C(/C=C/c1ccco1)NCC(=O)N/N=C/c1ccc([N+](=O)[O-])cc1 | -0.504%
24 | Cc1ccsc1C(=O)N1CCN(c2ccccn2)CC1 | 20.4%
25 | COc1cc(/C=C/C(=O)OCC(=O)N2CCC(C)CC2)ccc1OCC#N | -9.56%
26 | COc1ccc(S(N)(=O)=O)cc1C(=O)NCC1(N2CCCCC2)CCCCC1 | -20.2%
27 | Cc1ccc(NC(=O)C(=O)NCc2ccc(/C=C(/C#N)C(=O)NCc3cccnc3)o2)cc1 | -17.7%
28 | O=CN1CCN(C(C(=O)NC2CCCC2)c2ccc(Cl)cc2)CC1 (stereo not drawn) | -14.8%
29 | COc1ccc([C@H]2CC(=O)C=C(c3cc(C(F)(F)F)cc(C(F)(F)F)c3)C2)cc1 | 4.42%
30 | CCOc1ccc(NS(=O)(=O)c2cc(NC(=O)CCC(=O)c3cccs3)ccc2Cl)cc1 | 19.3%
31 | Cn1cc(S(=O)(=O)Nc2cccc(F)c2)c(=O)n(C)c1=O | -16.9%
32 | Cc1cccc(NC(=S)NCC(c2cccnc2)N2CCOCC2)c1 (stereo not drawn) | 6.72%
33 | Nc1cc(C(=O)N/N=C/c2cccc([N+](=O)[O-])c2)n[nH]c1=O | 7.18%
34 | CC(C)C(=O)N1CCN(c2ccccc2NC(=O)Cc2ccc(Cl)cc2)CC1 | -69.7%
35 | CCOC(=O)c1sc(NC(=O)CSc2n[nH]c(-c3ccccc3)n2)c(C#N)c1C | -5.57%
36 | Cc1ccc(OCC(O)CN2CCOCC2)cc1C.Cl (stereo not drawn) | 17.7%
37 | C/C(=N\NS(C)(=O)=O)c1ccc(C)cc1 | -2.18%
38 | CN1CCN(C(=S)SCC(=O)Nc2nc(-c3ccccc3)c(-c3ccccc3)o2)CC1 | -12%

Row | SMILES | hERG current change (%, negative = inhibition) at 10uM
39 | CNC(=O)c1oc(-c2ccccc2)nc1C | 12.4%
40 | CCOC(=O)CCC(=O)N1CCOCCOCCN(C(=O)CCC(=O)OCC)CCOCCOCC1 | 11.3%
41 | CCOc1ccc(C(=O)Nc2ccccc2N2CCCC2)cc1 | -22.8%
42 | N#Cc1c(C(F)(F)F)cc(-c2cccc(Cl)c2)[nH]c1=O | 25.2%
43 | COc1ccc(C(c2c(N)[nH]c(=S)[nH]c2=O)c2c(N)[nH]c(=S)[nH]c2=O)cc1 | 15.8%
44 | Cc1ccc(NC(=O)CN2C(=O)N/C(=C/c3ccc(N4CCOCC4)cc3)C2=O)cc1 | 3.62%
45 | Cc1ccc(CN(C(=O)Cn2nnc3ccccc32)C(C(=O)NCc2ccco2)c2ccc(C)o2)cc1 (stereo not drawn) | 0.0258%
46 | CN(CCC#N)C(=S)Nc1ccc(S(=O)(=O)N2CCOCC2)cc1 | 5.82%
47 | O=C(NCCCN1CCCC1)Nc1ccc(F)cc1 | 4.71%
48 | O=C(Cn1nnc2ccccc2c1=O)NCc1ccc(Cl)cc1 | 8.5%
49 | Cc1nc2sccn2c(=O)c1S(=O)(=O)NCc1ccccc1 | -2.53%
50 | CCN(CC)CCC(C)OC(=O)c1ccc(O)cc1O.Cl (stereo not drawn) | -21.9%
51 | O=C(NCC1(N2CCCCC2)CCCCC1)c1ccc(NS(=O)(=O)c2ccccc2)cc1 | -44.1%
52 | CCOC(=O)CNC(=O)COc1coc(CN2CCN(c3ccc(F)cc3)CC2)cc1=O | 3.38%
53 | CCOc1ccccc1NC(=O)C(OC(=O)c1ccc(CC)cc1)c1ccccc1 (stereo not drawn) | -3.44%
54 | CC(C)[C@@H](C(=O)NC1CCCC1)N1C(=O)N2CCc3c([nH]c4ccccc34)[C@@]2(C)C1=O | -12.4%
55 | CCOC(=O)c1[nH]c2ccc(Br)cc2c1NC(=O)CCN1CCC(C)CC1 | -69.1%
56 | Oc1ccccc1-c1cc(C(F)(F)C(F)F)nc(-c2ccccc2)n1 | 4.07%
57 | CC(C(=O)Nc1ccccn1)c1ccccc1 (stereo not drawn) | 14.7%
